{"source": "paper PMC12341937", "about": "“AlphaFold-guided structural analyses of nucleosome binding proteins” (Nucleic Acids Research, 2025)", "proteins": {"B1": {"name": "RNF168 ([…]) (domain or fragment)", "chain": "not shown", "notes": "pET28a; a thrombin site follows the His tag"}}, "molecular_target": "the molecule itself", "assay": "AUC; OD 0.8, Tris–HCl pH 7.5, 300 mM NaCl; absorbance at 280 nm, 16°C, 58 000 rpm, 8 h", "data": [{"protein": "B1", "values": [{"measurement": "stoichiometry N", "value": 2}]}]}
